In the supplement of paper PMC3334620:
Over roughly 33,000 sequences, “E-score (-0.5 to 0.5)” has its median near -0.035; the highest 2% begin near 0.34. The list shows a part of the results.

biological target: T1, Mot3 (UniProt P54785); test: PBM E-score (8-mer binding enrichment) (E-score (-0.5 to 0.5)); higher = stronger / more preferred TF binding; most listed sequences are background and not binding sites; conditions: protein concentration: 200 nM; construct: GST-full length
T1 sequence: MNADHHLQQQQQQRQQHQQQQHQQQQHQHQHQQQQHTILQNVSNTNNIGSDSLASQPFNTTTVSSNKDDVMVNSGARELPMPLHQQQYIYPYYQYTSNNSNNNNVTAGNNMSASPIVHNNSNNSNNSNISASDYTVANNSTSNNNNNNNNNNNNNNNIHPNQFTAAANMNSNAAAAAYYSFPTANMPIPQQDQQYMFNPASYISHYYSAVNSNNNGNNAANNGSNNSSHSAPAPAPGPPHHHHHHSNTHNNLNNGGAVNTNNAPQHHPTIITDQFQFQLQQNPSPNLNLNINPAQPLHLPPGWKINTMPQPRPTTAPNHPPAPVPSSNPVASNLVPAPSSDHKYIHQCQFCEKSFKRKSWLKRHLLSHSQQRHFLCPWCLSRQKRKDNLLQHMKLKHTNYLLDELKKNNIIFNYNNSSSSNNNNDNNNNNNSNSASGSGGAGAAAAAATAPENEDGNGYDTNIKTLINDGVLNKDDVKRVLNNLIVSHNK
How it was run: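 PURExpress in vitro transcription/translation supplied GST-tagged yeast transcription factors, either full-length or DNA-binding domain. Applied at about 100-200 nM to universal all-10-mer Agilent arrays double-stranded by primer extension, the bound protein was detected with fluorescent anti-GST. E-scores, modified Wilcoxon-Mann-Whitney statistics, were given by the Universal PBM Analysis Suite to ungapped eight-base words pooled with their reverse complements after masliner normalisation.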

Sequence | PBM E-score
CTATGCTC | -0.196
ATTAGGGA | -0.132
AAACGCTG | 0.0217
CGAATACA | 0.277
CCTTCTAA | -0.00208
ATATCATG | 0.0066
ATTATTAC | 0.244
CATGAATG | 0.0214
ATGTGCAG | 0.0234
CCTAGGGC | -0.262
ATATGTAG | 0.202
AAAACACG | 0.335
CCAGCGGG | -0.266
GCTGGCTA | -0.356
AGCTTAAC | 0.133
AGTTTTCC | 0.0576
GCAGTAAA | -0.0685
ATGCAGAA | -0.00948
CGGTCTTA | -0.168
AATGTTAC | 0.213
AGTCGGTC | -0.191
GTCACGAA | 0.0688
CGGACAAA | 0.00488
CACATACC | 0.136
GGTGGCGA | -0.201

Sequence | PBM E-score
GAACTTAC | 0.174
AGCTTCTC | -0.135
CGTGGGCC | -0.0848
AGCAAAAT | 0.151
CTGGACGA | -0.174
CGGAACAA | 0.0225
AAAACGGC | 0.0108
TAAGATAA | 0.0765
CTGTTGTC | 0.00315
AATCAGCC | -0.232
TTCTTCAA | 0.0231
CTCTGGCA | -0.309
CTTTTACC | 0.141
GTTTATGA | -0.0399
CGTCTTAA | 0.038
AGGGTACA | 0.0495
ACAGGGTC | 0.0763
ATCTTGAA | 0.0179
ATACCTGG | -0.151
CGATGTGA | 0.037
CGAAGACG | -0.186
AACGTTGT | 0.192
TCCAAACA | -0.0454
GACAAGAC | -0.0436
CGCTTTTC | -0.0864

Sequence | PBM E-score
CAGTGAGA | -0.17
CATGTGTC | 0.0577
AATATACC | -0.0367
ACCATACC | -0.327
CCCAGAGA | -0.224
ATCAGCAT | 0.0765
ATGAACCA | 0.101
CGACCTCA | -0.0396
CCCTACGA | -0.0683
AAAAGTTT | 0.0965
AAGTGGGC | 0.0201
ACGAGGAG | -0.169
CGAGCCCG | -0.303
ACTTATCG | -0.238
CCGGTTCC | 0.0313
TGCGAGAA | -0.215
CCTACTAA | -0.0114
CCCTAACC | -0.29
TATGCTGA | 0.0175
ACTGCAAA | -0.0642
CCGTGGAA | -0.0488
CCTGGCAG | 0.0611
GCATAAGC | -0.00811
CTGCCCAC | -0.0587
AGACTCGG | -0.368

Sequence | PBM E-score
ACTCCTAC | 0.00755
ATACCAAG | 0.0179
ACGTCGAC | 0.109
ACCACTCT | -0.203
CAACATTA | 0.187
ATTAACAG | 0.163
ATATTGTG | 0.143
CACACAAA | 0.151
GTGCGCGA | -0.149
CAGTTCAC | -0.0608
AGAGGCAC | 0.465
ATGCCACG | -0.0291
CAGTATCA | -0.111
GTCAGCTA | -0.211
GTATGGCA | -0.0542
CACTTGTA | 0.23
GCAGTGCA | -0.21
ACCACGGA | -0.175
TTAGAAAA | 0.0162
ACTTTTCG | -0.0559
CTGAGCTA | -0.296
TAACTGAA | 0.0274
ACGGCTGG | -0.296
CGCTGATA | 0.0385
CAGAGTAG | -0.0204

Sequence | PBM E-score
ATGACATG | 0.294
AGGTACGG | 0.39
ACAGGCGG | -0.015
AAAGTGAC | 0.0409
CCTAGTCA | 0.0544
CTTCGAGA | 0.0488
GTCAAAAA | 0.13
GACAGTCC | -0.239
ACGACAAG | -0.0379
GCTTGGCA | -0.105
TAAATATA | 0.161
ACTGGCCT | -0.225
TATTCAAA | 0.0658
ATTCGACG | 0.0182
ATACCCAC | -0.107
AGTGTGGA | -0.0682
ACATTCCC | 0.137
GACGAAAC | -0.0507
ACTTGGAG | -0.126
AGTCGACT | -0.0175
GCGCGCGA | -0.031
ACAGATGT | -0.0647
GGTGCGCA | -0.194
ACTATGGC | 0.128
AGGTTTGC | 0.0354

Sequence | PBM E-score
CCTCTATC | -0.0465
AAGCGGTA | 0.0928
ACGCGAGG | -0.0702
ATGTTTAG | 0.279
TCTCCCAA | -0.166
CAGCGTGA | -0.0794
AGGACCGA | -0.171
AGGATTTA | -0.0676
GCTTCACC | -0.24
CTCATCAG | -0.0116
AAGATAAA | 0.175
AGTGTCAT | 0.126
GCAGCATA | 0.0575
AGTTTCAT | -0.0336
ACGCAAAA | 0.156
CCCCTACA | 0.0392
CCTTCCGA | 0.062
GGTTTTAC | 0.154
TGACGACA | 0.0496
CCCGCGCA | -0.257
TACAGACA | 0.183
TACATTCA | 0.246
CCACCGCA | -0.192
CCCCGGCC | -0.306
CATAACCG | -0.103

Sequence | PBM E-score
AAGGAAGT | -0.105
ATCTTGTG | 0.0404
AACAAAGC | 0.208
CGCCTCGA | -0.0217
ATCCTCAG | -0.0109
GCAAGCAA | 0.0973
AATTGGAG | -0.184
CCGCCGCC | -0.203
ACTCGTCC | 0.0032
GAGCACAA | -0.00774
CATGCGAC | -0.0646
CAAATTTA | 0.166
ATGCTTAC | -0.188
GCACTGGC | -0.14
AACGGTAG | -0.142
GAAAAGCA | -0.0279
CACCAGAC | -0.0318
GATCGTGC | -0.0153
CTTCGAAG | -0.047
TCGTTCAA | 0.0303
GAATCCCA | -0.0287
CCTGGCAC | -0.0639
